From PubChem BioAssay AID504832 (National Center for Advancing Translational Sciences (NCATS), 2011)
In all, about 310,000 compounds went through this assay and about 18,000 (5.8%) were called active. Inconclusive results, whose numbers are uncertain, are shown with a selection of clear calls. The call rests on the fitted dose curve; in most records, active means well fitted inhibition curve with a large enough effect; inconclusive means small, poorly fitted or top-dose-only effect, or another doubt; inactive means no such curve, though single readings can be large or run the other way. Potencies of inconclusive entries are left out as doubtful fits.

assay: Primary qHTS for delayed death inhibitors of the malarial parasite plastid, 48 hour incubation; details: P. falciparum luciferase growth in erythrocytes; series mostly up to 28.7 µM; activity change, negative = inhibition: at the top concentration
How it was run: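 Cell-based growth assay: transgenic P. falciparum expressing firefly luciferase, cultured in red cells within RPMI 1640 containing 0.5% w/v Albumax, 24 mM bicarbonate and gentamycin. A drop in luciferase activity indicates inhibition.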
On the % scale 0 is the no-effect control and ±100 the full control effect; potency means the concentration at half of the fitted maximal effect; tags describe the fitted curve by direction and shape.

SMILES | activity change, negative = inhibition | Potency
Cn1c(=N)n(CC(=O)c2cccs2)c2ccccc21 | inactive: 200% | –
Clc1ccc(CS[C@@H](Cn2ccnc2)c2ccc(Cl)cc2Cl)cc1 | – | active: 5.1 µM
CC(=O)c1c(C)[nH]c(C(=O)OCC(=O)Nc2c(C)n(C)n(-c3ccccc3)c2=O)c1C | inactive: 2.3% | –
S=c1[nH]nc(COc2ccccc2)n1/N=C/c1ccco1 | inactive: 8.18% | –
Cc1ccc(Nc2ccc(N3CCN(c4ccc([N+](=O)[O-])cc4)CC3)nn2)cc1 | inactive: -9.38% | –
COc1ccc2c(c1)c(/C=C/c1cc[n+](C)cc1)cn2C | – | active: 1.17 µM
S=C(NCCOCCOCCNC(=S)Nc1ccccc1)Nc1ccccc1 | – | active: 6.57 µM
CC(=O)Cc1nsc(Nc2ccc(Cl)cc2)n1 | inactive: 93.8% | –
COc1ccc(C(=O)c2ccc(OC)c3cccc(O)c23)cc1OC | – | inconclusive [inhibitor, single point]
CCOc1ccc(C2N(c3cc(C)on3)C(=O)C3CCCN32)cc1OC (stereo not given) | – | inconclusive [inhibitor, partial curve, poor fit]
NC(=O)C1CCN(c2nc(-c3cccs3)cs2)CC1 | inactive: 16.4% | –
CN1C(=O)C(C(=O)NC(C)(C)C)C2c3ccccc3OC13CCCCC23 (stereo not given) | – | inconclusive [inhibitor, partial curve, poor fit]
CCOC(=O)C1=C(C)N(c2ccc(Cl)cc2)C(=O)NC1c1cccc([N+](=O)[O-])c1 (stereo not given) | – | inconclusive [inhibitor, single point]
Cc1ccc(S(=O)(=O)N2CCN(C(=O)COC(=O)CCOc3ccccc3C)CC2)c(C)c1 | – | inconclusive [inhibitor, single point]
CC(C)(C)C(=O)N1CCN(c2nc3ccc(Cl)cc3s2)CC1 | inactive: -5% [at 0.00184 µM] | –
CCOC(=O)c1c(NC(=O)CSc2nnc(-c3c[nH]c4ccccc34)n2C)sc2c1CCCC2 | – | inconclusive [inhibitor, single point]
Cc1nnc(SCc2ccccc2C#N)n1-c1ccccc1 | – | inconclusive [inhibitor, single point]
Cc1ccc(-c2noc(C3CCN(C(=O)Nc4ccc(C#N)cc4)CC3)n2)o1 | – | inconclusive [inhibitor, partial curve]
O=C(Nc1ccccc1)Nc1nc(-c2ccc(F)cc2)cs1 | – | inconclusive [inhibitor, single point]
Cc1ccc(N(CC(=O)NCc2ccccc2Cl)S(=O)(=O)c2cccs2)cc1 | – | inconclusive [inhibitor, partial curve, poor fit]
N#CC1=C2SCC(O)(c3ccccc3)N2C(=O)CC1c1cccs1 (stereo not given) | – | inconclusive [inhibitor, partial curve, poor fit]
CCOC(=O)c1ccc(NC(=O)c2cccnc2)cc1 | inactive: 25.6% | –
CCN(CC)C(=O)N1CCC(NC(=O)c2ccc(C(C)(C)C)cc2)CC1 | – | inconclusive [inhibitor, full curve, poor fit]
CCOc1ccccc1CNC(=O)CCc1cn(CC)c2ccccc12 | – | active: 14.7 µM
CCCCOc1ccc(/C=C/C(=O)Nc2ccc([N+](=O)[O-])cc2C)cc1 | inactive: -21.5% | –

SMILES | activity change, negative = inhibition | Potency
O=C(CCl)N(C/C=C/c1ccccc1)c1ccc2c(c1)OCCO2 | – | inconclusive [inhibitor, single point]
Cc1ccc(S(=O)(=O)N2CCC(C(=O)NCc3ccccc3CN3CCCC3)CC2)cc1C | – | inconclusive [inhibitor, single point]
Cc1cc2nc(-c3cccnc3SCC(=O)NC3CC3)[nH]c2cc1C | inactive: 157% | –
CCn1c(=O)n(CC)c2cc(N)ccc21 | – | inconclusive [inhibitor, partial curve, poor fit]
O=C(Cn1ncc2c3ccccc3n(Cc3ccccc3F)c2c1=O)N1CCC2(CC1)OCCO2 | inactive: -14.1% | –
CCn1c(SCC(=O)Nc2ccc(C(C)=O)cc2)nc2c([nH]c3ccccc32)c1=O | – | inconclusive [inhibitor, full curve, poor fit]
CCOC(=O)c1ccccc1NC(=O)CSc1nnc(Cc2cccn2C)n1-c1ccc(C)cc1 | – | inconclusive [inhibitor, partial curve, poor fit]
CCOc1ccc(NC(=O)c2nsc(Cl)c2Cl)cc1 | inactive: 105% | –
CCN(CC)S(=O)(=O)c1ccc(OC)c(NC(=O)CSc2cc(Cl)ccc2Cl)c1 | – | inconclusive [inhibitor, single point]
CCC(CC)C(=O)c1c[nH]c(C(=O)NCc2ccncc2)c1 | – | inconclusive [inhibitor, single point]
O=C1NN=C(c2ccc(Cl)cc2)CC1c1cccc(Br)c1 (stereo not given) | – | active: 4.15 µM
O=C(CCC(=O)N1CCSc2ccccc21)NC1CCCCC1 | inactive: 10.1% | –
CCOC(=S)SCC(=O)Nc1nc(-c2ccccc2)cs1 | – | inconclusive [inhibitor, single point]
CCOc1ccc(-c2cc3nc(C4CCN(C(=O)OC(C)(C)C)CC4)c(C(=O)O)cn3n2)cc1 | – | active: 0.465 µM
COc1cccc(-c2c(C#N)c(N)nc3c2c(=O)nc2sccn23)c1 | – | inconclusive [inhibitor, full curve, poor fit]
COc1ccc(-c2nc(C#N)c(NCc3ccc(F)cc3)o2)cc1OC | – | inconclusive [inhibitor, single point]
CCC(=O)c1ccc(OCc2ccc(C(=O)OC)o2)c(OC)c1 | inactive: -38.2% | –
COc1c(Cl)cc(Cl)cc1/C=N/NC(=O)c1nnn(-c2nonc2N)c1CN1CCC(C)CC1 | – | inconclusive [inhibitor, single point]
COc1ccc(C(=O)NC2CCN(C(=S)Nc3cccc(C)c3C)CC2)cc1 | – | inconclusive [inhibitor, full curve, poor fit]
O=C(c1ccncc1)N1N=C(c2ccc(Cl)cc2)CC1c1ccccc1O (stereo not given) | – | inconclusive [inhibitor, single point]
Cc1ccc(C(=O)NC(=S)Nc2ccc(S(=O)(=O)N(C)c3ccccc3)cc2)cc1 | inactive: 4.07% | –
O=S(=O)(c1ccccc1F)N1CCN(C(=S)NCc2ccccc2)CC1 | – | active: 3.7 µM
CSc1nnc(-c2cccs2)n1-c1ccccc1 | inactive: -3.63% | –
CCCNC(=O)COC(=O)/C=C/c1ccco1 | inactive: 17.7% | –
O=C(C[n+]1cc(-c2ccccc2)n2c1CCCCC2)c1ccc(Br)cc1 | – | active: 1.65 µM

SMILES | activity change, negative = inhibition | Potency
COCCn1c(-c2cccc(Br)c2)nc2c(c(=O)c3ccccc3n2C)c1=O | – | inconclusive [inhibitor, partial curve]
COc1cc(CN(CCN(C)C)Cc2ccccc2)ccc1OCc1ccccc1 | – | inconclusive [inhibitor, single point]
COC(=O)CNC(c1ccccc1)c1cc(C)ccc1NC(=O)CNC(=O)OCc1ccccc1 (stereo not given) | – | active: 13.1 µM
O=C(CN1C(=O)CC(c2ccco2)Sc2ccccc21)NCC1CCCO1 (stereo not given) | – | inconclusive [inhibitor, partial curve, poor fit]
COc1ccc(CCNC(=O)C(=O)NCC2OCCN2S(=O)(=O)c2ccccc2)cc1 (stereo not given) | inactive: 11.9% | –
COc1ccc(CN2C(=O)c3cccnc3C2=O)cc1S(=O)(=O)NC(C)C | inactive: 14% | –
CCc1nc(C)cn1S(=O)(=O)c1cc(Br)ccc1OC | – | inconclusive [inhibitor, partial curve, poor fit]
Cc1ccc(/C=N/NC(=O)C[n+]2ccccc2)o1 | – | inconclusive [inhibitor, single point]
CCN1/C(=C/c2ccc3ccc(C)cc3[n+]2CC)Sc2ccccc21 | – | active: 1.17 µM
Cc1ccc(C(=O)CCC(=O)N2CCN(C(=O)c3ccco3)CC2)cc1 | inactive: 21.9% | –
COc1ccccc1NC(=O)c1ccc2c(c1)C(=O)N(Cc1ccco1)C2=O | inactive: 7.9% | –
CCOC(=O)c1c(C)nn(-c2ccc(NC(=O)c3cccs3)cc2)c1C | – | active: 14.7 µM
CCOc1ccc(C(=O)NN2C(=S)NC(C)(C)C=C2C)cc1 | inactive: 15.3% | –
CC1CN(CCCSc2ccc(Cl)cc2)CC(C)O1 (stereo not given) | inactive: 14.8% | –
Cc1ccc(CN2CC34C=CC(O3)C(C(=O)NCc3ccco3)C4C2=O)cc1 (stereo not given) | inactive: 20.5% | –
CCC(C(=O)NC(C)CCc1ccco1)n1nc(C)n2c(cc3occc32)c1=O (stereo not given) | – | inconclusive [inhibitor, partial curve, poor fit]
CCOc1ccc(/C=C2\SC(N3CCCCC3)=NC2=O)cc1 | – | inconclusive [inhibitor, partial curve]
O=C(NCc1ccccc1)c1ccccc1C(=O)c1ncc[nH]1 | inactive: 7.5% | –
Cc1ccc(NC2=NC(c3ccc(F)cc3)n3c(nc(C)cc3=O)N2)cc1 (stereo not given) | – | inconclusive [inhibitor, partial curve, poor fit]
CCOC(=O)c1sc2nc(SCC#N)n(CCCN3CCCC3=O)c(=O)c2c1C | – | active: 10.4 µM
NC(=O)NCCCC(=O)O | – | inconclusive [inhibitor, single point]
Cc1ccc(C(=O)N(CCc2ccccc2)Cc2ccccc2)cc1S(=O)(=O)N1CCCCC1 | – | active: 13.1 µM
N=c1ccn(CC(=O)NC(N)=O)c2ccccc12 | – | inconclusive [inhibitor, full curve]
O=C(NC1CCCCC1)C1CCC(=O)N(Cc2cccc(C(F)(F)F)c2)C1 (stereo not given) | – | inconclusive [inhibitor, partial curve]
CC(C)(C)C(=O)N1CCN(c2ccc(NC(=O)c3ccc4c(c3)OCCO4)cc2)CC1 | – | inconclusive [inhibitor, partial curve]
